# Laboratory results published in PubChem BioAssay AID485360 (National Center for Advancing Translational Sciences (NCATS), 2010).
# Out of some 230,000 compounds screened, about 1,500 (0.65%) were called active. The shares of active, inactive and inconclusive entries below differ from those in the screen. Calls come from the whole dose curve; as a rule, active = well fitted inhibition curve with a large enough effect; inconclusive = small, poorly fitted or top-dose-only effect; inactive = no such curve, though single readings can be large or run the other way. Potencies of inconclusive entries are doubtful fits and often do not repeat.
# Molecular target: Lethal(3)malignant brain tumor-like protein 1 (Homo sapiens) (UniProt Q9Y468)
# Experiment: qHTS Assay for the Inhibitors of L3MBTL1; note: nearly all actives have a fitted effect of over 60% in size
# Conditions: AlphaScreen L3MBTL1–H3K9me1 peptide binding; activity, negative = inhibition: at 57.1 µM (top of the series)
# Procedure, shortened: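 Read-out is AlphaScreen signal from streptavidin donor and nickel chelate acceptor beads (10 ug/mL final each) bridging L3MBTL1 (50 nM) and biotinylated K9-monomethylated H3(1-15) peptide (75 nM), after 30 min compound exposure at room temperature.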
# % is set by controls: 0 for no effect and ±100 for the full control effect; potency is the fitted concentration of half-maximal effect; tags give direction and shape of the fitted curve.
# Chain of UniProt Q9Y468 (Q9Y468 whole entry, looked up): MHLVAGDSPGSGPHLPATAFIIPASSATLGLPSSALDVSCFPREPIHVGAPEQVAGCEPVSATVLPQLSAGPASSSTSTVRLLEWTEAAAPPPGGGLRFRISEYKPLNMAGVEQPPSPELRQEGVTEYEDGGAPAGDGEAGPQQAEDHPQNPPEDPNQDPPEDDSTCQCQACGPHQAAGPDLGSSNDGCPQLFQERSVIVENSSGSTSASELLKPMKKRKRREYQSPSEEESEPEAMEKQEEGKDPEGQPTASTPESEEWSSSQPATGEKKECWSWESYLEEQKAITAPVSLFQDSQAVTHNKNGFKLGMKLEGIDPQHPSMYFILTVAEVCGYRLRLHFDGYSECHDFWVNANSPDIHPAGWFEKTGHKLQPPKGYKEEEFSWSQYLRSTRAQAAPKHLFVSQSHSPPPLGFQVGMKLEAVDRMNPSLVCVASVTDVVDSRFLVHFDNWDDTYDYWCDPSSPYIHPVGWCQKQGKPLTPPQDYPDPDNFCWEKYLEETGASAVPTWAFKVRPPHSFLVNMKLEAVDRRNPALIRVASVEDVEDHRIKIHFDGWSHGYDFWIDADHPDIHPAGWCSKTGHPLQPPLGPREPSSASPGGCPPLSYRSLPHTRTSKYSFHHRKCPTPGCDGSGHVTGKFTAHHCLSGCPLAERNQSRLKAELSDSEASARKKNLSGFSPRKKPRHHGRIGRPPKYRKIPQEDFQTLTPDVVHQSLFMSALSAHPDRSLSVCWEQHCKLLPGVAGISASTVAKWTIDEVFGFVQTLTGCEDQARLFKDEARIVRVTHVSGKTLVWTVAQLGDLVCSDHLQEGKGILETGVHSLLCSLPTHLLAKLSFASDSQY
SMILES,Potency,"activity, negative = inhibition"
CCCCNc1c([N+](=O)[O-])cc(C)cc1[N+](=O)[O-],"inconclusive: 20 µM [inhibitor, partial curve]",–
CC(C)(C)NS(=O)(=O)NC(=O)C1=C(N2CCCC2)COC1=O,inactive,–
COc1ccc2[nH]c(C)c(CCNC(=S)Nc3cccc(C)c3)c2c1,–,inconclusive: -48.2% [inhibitor]
COc1ccc(Nc2cc(C(=O)N3CCc4ccccc4C3)c3ccccc3n2)c(OC)c1,"inconclusive: 31.6 µM [inhibitor, single point]",–
COc1ccc(/C=N/NC(=O)CCn2cnc(-c3ccccc3)c2-c2ccccc2)cc1OC,"inconclusive: 31.6 µM [inhibitor, partial curve]",–
O=C(NNc1nc(-c2ccc(Cl)cc2)cs1)c1ccco1,inactive,–
c1n[nH]c(NCc2ccc3c(c2)OCO3)n1,"inconclusive: 0.794 µM [inhibitor, single point]",–
CC1(C)CC(=O)C2=C(C1)NC1=C(C(=O)c3ccccc31)C2c1ccccc1 (centres undefined),"inconclusive: 15.8 µM [inhibitor, partial curve]",–
CCN(CC)c1ccc(NC(=O)/C=C/c2cc(Br)ccc2OC)cc1,"inconclusive: 17.8 µM [inhibitor, partial curve]",–
COc1ccc(C(CCN2CCOCC2)c2c(OC)cc(OC)c3c(-c4ccccc4)cc(=O)oc23)cc1 (centres undefined),inactive,–
Cc1ccc(O)c(N=Nc2nccs2)c1,"inconclusive: 17.8 µM [inhibitor, partial curve]",–
Cc1c(C(=O)N(Cc2ccc(N(C)C)cc2)C2CCS(=O)(=O)C2)oc2ccccc12 (centres undefined),inactive,–
COc1cc([N+](=O)[O-])cc(/C=N/NC(=O)c2ccc(C)nc2)c1O,"inconclusive: 25.1 µM [inhibitor, single point]",–
Clc1ccc(CNc2ccccc2NCc2ccc(Cl)nc2)cn1,"inconclusive: 17.8 µM [inhibitor, partial curve]",–
CCOc1cccc(=O)c2c(C)n(C)c(C)c12,"inconclusive: 39.8 µM [inhibitor, single point]",–
Oc1c(N=Nc2ccc(F)cc2)ccc2ccccc12,active: 7.94 µM,–
CCOC(=O)c1oc2ccccc2c1NC(=O)C(C)(C)C,"inconclusive: 0.794 µM [inhibitor, single point]",–
CC1(C)CN(O)CCN1O,inactive,–
CCOc1ccc(N=c2cc(-c3ccc(OC)cc3)oc3ccccc23)cc1,"inconclusive: 10 µM [inhibitor, partial curve]",–
Cc1cc(C(=O)N/N=C/c2ccco2)n[nH]1,inactive,–
Cc1ccc(NC(=O)NCc2ccccn2)cc1,"inconclusive: 39.8 µM [inhibitor, partial curve]",–
O=C(CSc1nnc(-c2cccs2)n1Cc1ccco1)Nc1ccc2c(c1)OCO2,"inconclusive: 39.8 µM [inhibitor, single point]",–

SMILES,Potency,"activity, negative = inhibition"
NC(=O)C1CCN(C(=O)CCc2nc3sc4c(c3c(=O)[nH]2)CCCC4)CC1,"inconclusive: 25.1 µM [inhibitor, single point]",–
O=C(NN1C(=O)CSC1=S)C(=O)NN1C(=O)CSC1=S,active: 0.794 µM,–
O=C(CN(Cc1cccs1)S(=O)(=O)c1ccc(S(=O)(=O)NC2CCCCC2)cc1)Nc1ccccc1,inactive,–
CN(c1ccccc1)S(=O)(=O)c1ccc(Cl)c(C(=O)OCC(=O)NCc2ccco2)c1,"inconclusive: 28.2 µM [inhibitor, single point]",–
COCCNC(=O)C(c1ccc(C)cc1)N(C(=O)C(=O)NC1CCCC1)c1ccc2c(c1)OCCO2 (centres undefined),"inconclusive: 6.31 µM [inhibitor, single point]",–
CC1CCc2c(sc(NC(=O)c3ccc(Cn4cc([N+](=O)[O-])cn4)o3)c2C#N)C1 (centres undefined),"inconclusive: 28.2 µM [inhibitor, partial curve]",–
O=[N+]([O-])c1cccc(Cl)c1N1CCOCC1,inactive,–
CC(C)(C)C(=O)/C=c1\[nH]c(=O)/c(=C\c2ccccc2F)s1,"inconclusive: 1 µM [inhibitor, full curve, poor fit]",–
CCC(C)NC(=O)CSc1nc2ccsc2c(=O)n1-c1ccc(OC)cc1 (centres undefined),"inconclusive: 6.31 µM [inhibitor, single point]",–
COc1ccc(/C=N/N=C2/NC(=O)C(CC(=O)O)S2)cc1OCc1ccccc1Cl (centres undefined),"inconclusive: 28.2 µM [inhibitor, single point]",–
Cc1cc2nc(-c3ccc(SCC(=O)N4CCN(C(=O)c5ccco5)CC4)nc3)[nH]c2cc1C,active: 31.6 µM,–
CC(C)c1ccc(S(=O)(=O)Nc2ccc3c(c2)OCO3)cc1,inactive,–
C/C(=N\Nc1ccc(S(=O)(=O)Nc2ccc(Cl)cc2)cc1[N+](=O)[O-])c1ccc(N2CCOCC2)cc1,"inconclusive: 25.1 µM [inhibitor, partial curve]",–
Cc1ccc(-c2cc(C(=O)NCc3ccco3)c3ccccc3n2)o1,"inconclusive: 31.6 µM [inhibitor, single point]",–
CN1CCN(C(=O)c2ccccc2N(Cc2ccccc2)S(=O)(=O)c2ccccc2)CC1,"inconclusive: 3.98 µM [inhibitor, full curve]",–
Cc1cc(C(=O)COC(=O)c2cc(O)c3ccccc3c2O)c(C)n1CC1CCCO1 (centres undefined),"inconclusive: 3.98 µM [inhibitor, full curve]",–
OCCC1CN(Cc2cccc3c2OCO3)CCN1C1CCCC1 (centres undefined),"inconclusive: 11.2 µM [inhibitor, full curve, poor fit]",–
CCCCc1ccc(NC(=S)Nc2ccc(Nc3ccc(OC)cc3)cc2)cc1,"inconclusive: 39.8 µM [inhibitor, single point]",–
CC1CCC2(CC1)NC(=O)N(CC(=O)Nc1ccc(N3CCOCC3)cc1)C2=O (centres undefined),"inconclusive: 0.708 µM [inhibitor, single point]",–
Cc1ccc(Nc2nc(N)c([N+](=O)[O-])c(N3CCCC(C)C3)n2)cc1C (centres undefined),inactive,–
N#Cc1c(-c2ccco2)c2c([nH]c1=S)CCCC2,"inconclusive: 35.5 µM [inhibitor, single point]",–
OC(COc1cccc(OCC(O)CN2CCOCC2)c1)CN1CCOCC1 (centres undefined),"inconclusive: 4.47 µM [inhibitor, single point]",–
